Assay results from PMC10104637, “Phosphorylation of USP29 by CDK1 Governs TWIST1 Stability and Oncogenic Functions” (Advanced Science, 2023).
No constants are given. Whether binding was seen depends on the method and setting. Binding seen in cells or lysates may run through a third protein. Some results given as binding are weak or reduced against the parent protein; the word gives no strength. For some assays here: Sequences can lack the tags named with a protein.

Chains of the proteins cited; added tags and fusions are not shown.
UniProt P06493: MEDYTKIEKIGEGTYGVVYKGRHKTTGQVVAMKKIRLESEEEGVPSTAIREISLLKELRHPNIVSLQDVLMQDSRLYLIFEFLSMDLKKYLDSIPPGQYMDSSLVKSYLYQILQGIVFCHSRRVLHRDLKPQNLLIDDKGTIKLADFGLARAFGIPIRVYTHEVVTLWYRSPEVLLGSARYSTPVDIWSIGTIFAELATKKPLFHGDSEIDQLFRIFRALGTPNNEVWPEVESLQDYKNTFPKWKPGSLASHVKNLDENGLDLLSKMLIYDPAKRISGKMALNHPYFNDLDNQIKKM
UniProt Q15672: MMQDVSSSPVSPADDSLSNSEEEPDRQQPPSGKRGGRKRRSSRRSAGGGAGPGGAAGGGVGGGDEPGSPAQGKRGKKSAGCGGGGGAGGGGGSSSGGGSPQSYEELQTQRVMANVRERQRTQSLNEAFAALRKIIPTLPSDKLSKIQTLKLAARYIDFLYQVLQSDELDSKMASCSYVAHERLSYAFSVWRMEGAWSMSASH

Assays:
[1] = biological target: T1, Flag-USP29 M1 (1-286aa) (UniProt Q9HBJ7); test: co-IP; Flag-USP29 full length or truncations co-expressed with HA-TWIST1 in 293T cells; lysates precipitated with S-protein agarose; blot
T1 sequence: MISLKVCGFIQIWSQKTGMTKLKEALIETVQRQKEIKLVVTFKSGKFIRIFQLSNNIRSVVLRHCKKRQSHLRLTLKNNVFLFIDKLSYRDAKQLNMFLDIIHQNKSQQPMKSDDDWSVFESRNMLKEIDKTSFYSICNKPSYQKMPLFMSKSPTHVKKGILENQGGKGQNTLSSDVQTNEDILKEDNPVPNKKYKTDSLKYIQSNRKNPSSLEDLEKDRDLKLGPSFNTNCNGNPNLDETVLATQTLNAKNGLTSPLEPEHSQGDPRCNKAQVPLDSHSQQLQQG

[2] = biological target: T2, Flag-USP29 M2 (287-486aa) (UniProt Q9HBJ7); test: as above
T2 sequence: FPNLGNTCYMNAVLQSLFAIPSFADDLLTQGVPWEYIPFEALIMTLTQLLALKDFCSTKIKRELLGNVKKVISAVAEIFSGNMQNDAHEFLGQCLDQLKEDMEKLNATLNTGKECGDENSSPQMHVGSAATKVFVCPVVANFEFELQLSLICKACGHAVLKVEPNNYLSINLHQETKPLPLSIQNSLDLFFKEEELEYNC

[3] = biological target: T3, Flag-USP29 M3 (287-686aa) (UniProt Q9HBJ7); test: as above
T3 sequence: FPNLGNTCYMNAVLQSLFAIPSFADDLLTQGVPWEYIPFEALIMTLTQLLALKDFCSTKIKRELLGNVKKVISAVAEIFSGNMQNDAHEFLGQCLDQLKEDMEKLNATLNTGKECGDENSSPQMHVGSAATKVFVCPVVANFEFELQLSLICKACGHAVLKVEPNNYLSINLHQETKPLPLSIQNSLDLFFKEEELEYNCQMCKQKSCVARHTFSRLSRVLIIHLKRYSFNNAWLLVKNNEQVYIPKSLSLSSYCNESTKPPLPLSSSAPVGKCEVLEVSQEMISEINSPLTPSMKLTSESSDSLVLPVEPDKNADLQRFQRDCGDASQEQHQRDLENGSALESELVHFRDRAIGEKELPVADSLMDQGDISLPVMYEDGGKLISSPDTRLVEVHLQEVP

[4] = biological target: T4, Flag-USP29 M4 (687-922aa) (UniProt Q9HBJ7); test: as above
T4 sequence: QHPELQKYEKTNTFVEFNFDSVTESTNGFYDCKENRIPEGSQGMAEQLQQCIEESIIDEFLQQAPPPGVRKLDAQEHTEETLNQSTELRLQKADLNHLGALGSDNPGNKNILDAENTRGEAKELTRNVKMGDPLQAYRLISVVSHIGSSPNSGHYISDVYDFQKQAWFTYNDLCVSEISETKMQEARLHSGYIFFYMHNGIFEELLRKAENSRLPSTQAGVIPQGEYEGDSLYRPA

[5] = biological target: T5, Full length Flag-USP29 (UniProt Q9HBJ7); test: as above
T5 sequence: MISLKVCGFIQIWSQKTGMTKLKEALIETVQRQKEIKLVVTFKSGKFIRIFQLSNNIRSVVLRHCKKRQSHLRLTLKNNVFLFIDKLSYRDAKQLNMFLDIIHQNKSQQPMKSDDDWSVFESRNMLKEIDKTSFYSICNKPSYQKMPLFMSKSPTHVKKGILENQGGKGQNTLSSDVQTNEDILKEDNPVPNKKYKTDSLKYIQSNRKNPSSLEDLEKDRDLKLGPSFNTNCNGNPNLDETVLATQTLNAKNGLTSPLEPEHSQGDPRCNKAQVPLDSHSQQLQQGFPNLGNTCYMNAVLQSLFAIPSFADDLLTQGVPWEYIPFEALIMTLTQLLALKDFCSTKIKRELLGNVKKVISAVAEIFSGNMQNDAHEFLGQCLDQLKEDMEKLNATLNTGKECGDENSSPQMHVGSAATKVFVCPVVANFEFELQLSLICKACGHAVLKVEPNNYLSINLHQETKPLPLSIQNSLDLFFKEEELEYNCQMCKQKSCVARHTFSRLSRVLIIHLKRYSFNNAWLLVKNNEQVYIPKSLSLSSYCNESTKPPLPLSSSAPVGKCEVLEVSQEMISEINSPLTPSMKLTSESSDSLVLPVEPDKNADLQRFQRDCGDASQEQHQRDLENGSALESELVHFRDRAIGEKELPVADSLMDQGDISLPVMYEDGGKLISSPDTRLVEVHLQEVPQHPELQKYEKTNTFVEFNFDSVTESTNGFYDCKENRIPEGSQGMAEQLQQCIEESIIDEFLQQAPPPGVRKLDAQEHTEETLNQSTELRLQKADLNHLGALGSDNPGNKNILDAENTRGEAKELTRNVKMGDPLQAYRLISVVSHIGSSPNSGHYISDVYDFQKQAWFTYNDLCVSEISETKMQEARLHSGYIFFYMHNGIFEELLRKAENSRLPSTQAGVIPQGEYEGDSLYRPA

[6] = biological target: T6, USP29 (endogenous) (human (endogenous in MDA-MB-231, BT549, HCC1806)) (UniProt Q9HBJ7); test: co-IP; endogenous proteins; lysates of MDA-MB-231, BT549 (for USP29-TWIST1 also HCC1806) cells in NETN buffer, primary antibody (IgG as control) with protein A/G beads overnight at 4 °C; USP29-TWIST1 also after treatment of MDA-MB-231 cells with RO-3306
T6 sequence: T5 sequence

[7] = biological target: CDK1 (endogenous) (human (endogenous in MDA-MB-231, BT549)) (UniProt P06493); test: as above
[8] = biological target: TWIST1 (endogenous) (human (endogenous in MDA-MB-231, BT549, HCC1806)) (UniProt Q15672); test: as above

Question: Which results are given for HA-TWIST1 (from UniProt Q15672 1-202)?
Answer: binding [1]: no binding; binding [2]: no binding; binding [3]: no binding; binding [4]: binds; binding [5]: binds

Question: With “TWIST1 (endogenous) (from UniProt Q15672 1-202)” as the molecule, how does the binding [6] read?
Answer: binds

B1: USP29 (endogenous) (enzyme, UniProt Q9HBJ7 1-922)
chain: T5 sequence
Question: Which results are given for B1?
Answer: binding [7]: binds; binding [8]: binds
